# Reference: PubChem BioAssay AID463173 (ICCB-Longwood Screening Facility, Harvard Medical School, 2010)
# Hit rate of the full screen: of about 52,000 compounds, about 1,700 (3.3%) were called active. Rule as the data show it: active = survival mostly below about 52% (no sharp cut-off); inactive = mostly above about 56%. Some of the results follow.
# Test system: Wild type
# Assay: S. aureus survival, RN4220 and DeltatarO strains – OD600, teichoic acid synthesis inhibitors, primary screen (AID 463173)
# Details: S. aureus RN4220 wild type/DeltatarO growth, OD600, 18 h, hits give low values, screened at 18.75 µg/mL (by protocol)
row,Compound,survival
1,Cc1ccc(S(=O)(=O)c2nc(-c3cccc(C)c3)oc2N2CCCCC2)cc1,active: 2%
2,O=S(=O)(c1ccc(F)cc1)N1CCC(n2c(C(F)(F)F)nc3cccnc32)CC1,inactive: 68%
3,COc1ccc(N2CCN(C(=O)CN(C)S(=O)(=O)c3cccs3)CC2)cc1,inactive: 89%
4,COc1ccc(NC(=O)CSc2c3c(nc4ccccc24)CCC3)c(OC)c1,inactive: 117%
5,CCOC(=O)c1ccccc1NC(=O)c1sc2ccccc2c1Cl,inactive: 37%
6,COc1ccc(-c2cn3nc(N4CCCC(C(=O)NCc5ccccc5C)C4)sc3n2)cc1 (centres undefined),inactive: 66%
7,CCN(CC)C(=O)Cn1c(=O)cc(C)c2c(C)nn(C)c21,inactive: 135%
8,COc1ccc(Cn2ccnc2SCC(=O)Nc2cc(C(F)(F)F)ccc2Cl)cc1,inactive: 68%
9,COc1cccc(Nc2sc(C(=O)c3ccc(F)cc3)c(N)c2C(=O)NCc2ccc(C)cc2)c1,inactive: 63%
10,COc1cc(CNc2ccc3c(c2)ncn3C(C)C)cc(OC)c1OC,inactive: 66%
11,O=C(CN(CCc1ccccc1)S(=O)(=O)c1ccccc1)NCc1ccc(Cl)cc1,inactive: 80%
12,Fc1ccccc1OCc1nc(-c2ccc(-n3cccc3)cc2)no1,inactive: 95%
13,CN(Cc1ccc(F)cc1)S(=O)(=O)c1nnc(NC(=O)c2ccc(F)cc2)s1,inactive: 71%
14,COc1cccc(NC(=O)CSCn2nnc3c(=O)[nH]c(Cc4ccc(F)cc4)nc32)c1,inactive: 85%
15,O=C(Nc1ccccc1Cl)C1CCN(c2nc3ccccc3[nH]2)CC1,inactive: 66%
16,Nc1cc(=O)[nH]c(SCC(=O)N(c2ccccc2)c2ccccc2)n1,inactive: 111%
17,Cc1ccc(Cl)cc1N1CCN(C(=O)c2cc(S(=O)(=O)N3CCCCCC3)cn2C)CC1,inactive: 81%
18,Cc1cc(Cl)ccc1Nc1ncnc2onc(C)c12,inactive: 86%
19,O=C(CSc1nc2c([nH]c3ccccc32)c(=O)n1-c1ccccc1F)Nc1ccccc1C(F)(F)F,inactive: 60%
20,CC1CCC[S+](c2cc(O)ccc2O)C1 (centres undefined),inactive: 103%
21,COC(=O)c1ccc2c(c1)N(CC(=O)Nc1cccc(C(F)(F)F)c1)C(=O)c1ccccc1S2,inactive: 77%
22,CCOC(=O)c1ccc(NC(=O)C2CC(=O)N3CCCN=C3S2)cc1 (centres undefined),inactive: 104%
23,Cc1ccc2c(c1)CC(C)N2S(=O)(=O)c1nnc(NC(=O)c2ccccc2F)s1 (centres undefined),inactive: 28%

row,Compound,survival
1,CC(C)c1ccccc1NC(=O)CN(c1ccccc1)S(=O)(=O)N(C)C,inactive: 79%
2,CC(C)(C)n1nnnc1C(c1ccccn1)N1CCN(c2cccc(C(F)(F)F)c2)CC1 (centres undefined),inactive: 99%
3,CCOc1ccc(CNC(=O)c2[nH]c3ccccc3c2Sc2ccc(C)cc2)cc1,inactive: 120%
4,O=C(Cn1ccn(-c2cccc(Cl)c2)c(=O)c1=O)c1ccc(F)cc1,inactive: 81%
5,O=C(NCCCN1CCN(c2ccc(F)cc2)CC1)c1sc2ncccc2c1-n1cccc1,inactive: 32%
6,COc1ccc(OC)c(S(=O)(=O)N2Cc3ccccc3CC2C(=O)Nc2ccc(Cl)cc2)c1 (centres undefined),inactive: 78%
7,Cc1ccc2c(c1)C(=O)C(=O)N2Cc1ccc(OC(C)C)cc1,inactive: 62%
8,COc1ccc(CNc2nccs2)cc1OC,inactive: 112%
9,CCOC(=O)c1cc(-c2ccccc2)n(CCC(=O)Nc2ccc(C)cc2Cl)c1C,inactive: 113%
10,Oc1c(CN2CCOCC2)cc(CN2CCOCC2)cc1CN1CCOCC1,inactive: 116%
11,Cc1ccc(-n2nc(CO)c(C(=O)NCCCCc3ccccc3)n2)cc1,inactive: 121%
12,Cc1cc(C)cc(NC(=O)CCS(=O)(=O)c2ccc3nc(C)sc3c2)c1,inactive: 82%
13,O=C1C(c2ccc(F)cc2)N(Cc2ccccc2Cl)C(=O)CN1C1CCCCC1 (centres undefined),inactive: 81%
14,Cc1ccc(C(=O)N2CCC(N3CCN(Cc4ccc(F)cc4)C(=O)C3=O)CC2)cc1,inactive: 78%
15,CCOc1ccc(-c2nn(-c3ccccc3)cc2C2NC(=O)NC(C)=C2C(=O)OC(C)C)cc1C (centres undefined),inactive: 70%
16,CCN(CC)CCn1c2c(c(SCC(=O)Nc3cccc(C(F)(F)F)c3)nc1=O)CCC2,inactive: 91%
17,Cc1cccc(CNC(=O)Cc2ccc(NC(=O)N3CCCCc4ccccc43)cc2)c1,inactive: 77%
18,CCOc1ccc(-c2cn3c(n2)sc2cc(C(=O)NCCCN(CC)CC)ccc23)cc1,active: 2%
19,COc1ccc(CCNC(=O)CCCCn2c(=O)c3ccccc3n(Cc3ccc(Cl)cc3)c2=O)cc1OC,inactive: 105%
20,COc1cccc(CNC(=O)c2oc3ccc4c(c3c2C)C(=O)CC(C)(C)O4)c1OC,inactive: 84%
21,COc1ccc(CNC(=O)c2cc3c(=O)n4cccc(C)c4nc3s2)cc1,inactive: 95%
22,Cc1ccc(C(=O)O/N=C(/c2nonc2N)N(C)C)cc1,inactive: 113%
23,CCOC(=O)c1ccc(NC(=O)C(C)N(c2ccc(OCC)cc2)S(C)(=O)=O)cc1 (centres undefined),inactive: 84%

row,Compound,survival
1,Cc1c(C(=O)Nc2ccc(F)c(F)c2)oc2ccc(S(=O)(=O)N(C)C3CCCCC3)cc12,inactive: 74%
2,CCOC(=O)c1[nH]c(C)c(CCC(=O)NC(C)c2ccccc2)c1C (centres undefined),inactive: 72%
3,Cc1ccc(N(C)C(=O)Cn2cc(S(=O)(=O)N3CCCC3)c(S(=O)(=O)N3CCCC3)c2)cc1,inactive: 73%
4,Cc1ccc(C(=O)Nc2nc(-c3nnn(-c4cccc(Cl)c4C)c3C)ns2)cc1C,inactive: 136%
5,COc1cccc(-c2nc(CS(=O)(=O)CC(=O)NCCc3ccc(OC)c(OC)c3)c(C)o2)c1,inactive: 79%
6,COc1ccc(NC(=O)c2oc3c(c2C)-c2nn(Cc4ccccc4Cl)cc2CC3)cc1OC,inactive: 80%
7,Cc1ccc(-n2c(=O)c3c(cnn3C)n(CC(=O)Nc3c(C)cccc3C)c2=O)cc1,inactive: 87%
8,C=Cc1ccc(CSc2nnc(C)n3c2cc2occc23)cc1,inactive: 30%
9,Cn1c(=O)c2c(n3ncnc13)NC(=O)CC2c1cccc(F)c1 (centres undefined),inactive: 85%
10,COc1ccc(NS(=O)(=O)c2ccc3c(c2)CC(C)N3C(C)=O)c(OC)c1 (centres undefined),inactive: 85%
11,CCOC(=O)C1=C(CN2CCN(c3cccc(OC)c3)CC2)NC(=O)NC1c1ccc(OC)cc1 (centres undefined),inactive: 92%
12,Cc1ccc2c(CC(=O)N(Cc3ccc(Cl)cc3)Cc3ccco3)coc2c1,inactive: 113%
13,Cc1ccccc1Nc1cc(C(=O)NCCc2ccc(Cl)cc2)c2ccccc2n1,inactive: 102%
14,CC(CNC(=O)Cn1c(-c2cccs2)cc2ccccc21)c1ccccc1 (centres undefined),inactive: 143%
15,CCC(=O)N1CCc2cc(Br)cc(S(=O)(=O)N3CCCC(C(=O)NCc4ccc(OC)cc4)C3)c21 (centres undefined),inactive: 97%
16,Cn1c(O)c(C=NCC2CCN(C(=S)Nc3ccccc3)CC2)c(=O)n(C)c1=O,inactive: 117%
17,COC(=O)Cc1c(C)c2ccc3c(c2oc1=O)CN(Cc1ccccc1OC)CO3,inactive: 120%
18,COc1cccc(C(=O)Nc2c(C(=O)c3ccc(F)cc3)oc3ccccc23)c1,inactive: 72%
19,CCCC(=O)Nc1c2c(nc3ccccc13)N(c1ccccc1)CC2,inactive: 110%
20,COc1cc(C2c3c(oc4ccc(C)cc4c3=O)C(=O)N2Cc2ccccc2)ccc1O (centres undefined),inactive: 91%
21,O=C(Nc1cccc(F)c1)c1cccc2c1C(=O)N(C1CCCCC1)C2,inactive: 74%
22,Cc1ccc(Cl)cc1N1CCN(CCCNC(=O)c2nnc(Cc3cccc(Cl)c3)o2)CC1,active: 12%
23,CCCOc1ccc(C2c3c(-c4ccccc4O)n[nH]c3C(=O)N2CCCOCC)cc1OCC (centres undefined),inactive: 82%

row,Compound,survival
1,CCC(=O)N1CCCc2cc(S(=O)(=O)N3CCC(C(=O)Nc4ccccc4CC)CC3)ccc21,inactive: 152%
2,COc1cccc(NC(=O)CSc2nnc(-c3cccs3)o2)c1,inactive: 86%
3,COc1ccccc1NC(=O)Cn1c(=O)n(-c2cccc(Cl)c2)c(=O)c2c1c1cc(C)ccc1n2C,inactive: 82%
4,CC1=C(c2ccc(C)c(C)c2)S(=O)(=O)N=C1N1CCC(C(=O)Nc2cccc(F)c2)CC1,inactive: 71%
5,CC(C)C(c1nnnn1CCc1ccccc1)N1CCCC1 (centres undefined),inactive: 122%
6,Cc1cc(C)cc(Nc2nnc(-n3nc(C)cc3C)c3ccccc23)c1,inactive: 86%
7,CN1CCc2nc3sc(C(=O)Nc4cccc(C#N)c4)c(N)c3cc2C1,inactive: 91%
8,CCCOc1ccc(NC(=O)CC2C(=O)N(c3ccc(Cl)cc3)C(=O)N2CCc2ccncc2)cc1 (centres undefined),inactive: 124%
9,O=S(=O)(c1ccc(F)cc1)n1cccc1,inactive: 115%
10,CCN1CCN(Cc2c(O)ccc3oc(C)c(C(=O)Nc4ccc(C)cc4C)c23)CC1,inactive: 84%
11,CCc1ccccc1NC(=O)CSc1ncc(S(=O)(=O)c2ccccc2)c(=O)[nH]1,inactive: 90%
12,CCc1ccc(N(C(=O)c2ccco2)C(C(=O)NC2CCCC2)c2ccncc2)cc1 (centres undefined),inactive: 108%
13,Cc1cccc(OCC(=O)Nc2ccc(Cl)c(-c3nc4ccccc4[nH]3)c2)c1,inactive: 50%
14,Cc1ccc(OC(=O)c2cccnc2)cc1,inactive: 105%
15,O=C1CC(c2nnc(Cc3ccccc3Cl)o2)CN1c1ccccc1 (centres undefined),inactive: 108%
16,C=C(C)c1nc2cc(OC)c(OC)cc2c(=O)o1,inactive: 101%
17,Cc1ccc(-c2cc3c(n2-c2ccccc2F)CC(C)(C)CC3=O)cc1,inactive: 103%
18,Cc1c(C)n(Cc2ccc(F)cc2)c2ccc(C(=O)Nc3ccc(Cl)cc3)cc12,inactive: 71%
19,O=C(CC1C(=O)N(c2ccccc2)C(=O)N1Cc1ccc2c(c1)OCO2)Nc1ccccc1 (centres undefined),inactive: 77%
20,CCOC(=O)c1ccc(CN(Cc2ccccc2C)S(=O)(=O)c2ccc(F)c(C(=O)Nc3cccc(OC)c3)c2)cc1,inactive: 63%
